Test results taken from patent EP0545991B1, “PEPTIDES THAT BLOCK HUMAN IMMUNODEFICIENCY VIRUS INFECTIONS AND METHODS OF USE THEREOF” (VAHLNE, Anders, priority 1990, dated 1992).
Where two headings read alike, the source gives them in different places. For some of these results: Not every detail of the peptide structures is certain; ends, links or a residue may be inferred. Some entries repeat one wording, which the source may state once for all of them. For some of these results: At least one compound was matched to its structure with a doubt left. Where a SMILES comes first, the peptide text is derived from it.

Key:
[1] = system: HTLV IIIB/H9 N.Y.; assay: Infectivity assay (p24 ELISA, syncytia formation, indirect immunofluorescence), HTLV-IIIB/H9 New York; type: cell-based, HIV
[2] = system: herpes simplex virus type I (HSV-1) strain McIntyre; assay: Plaque reduction assay of HSV-1 on GMK AH1 cells; type: cell-based; settings: for PLAQUE REDUCTION NO. OF PLAQUES: mean of two cultures, 4 days at 37°C
[3] = system: HTLV IIIB/H9 Denmark; assay: Infectivity assay (p24 ELISA, syncytia formation, indirect immunofluorescence), HTLV-IIIB/H9 Denmark; type: cell-based, HIV
[4] = system: ELI1/HUT; assay: Infectivity assay (p24 ELISA, indirect immunofluorescence), ELI-1/HUT; type: cell-based, HIV
[5] = system: HIV; type: cell-based
Description: Virus at 100 50% tissue culture infectious doses (TCID50) and peptides at concentrations of 250 and 25 µg/ml were added to the cells simultaneously and incubated for 2 hours at 4°C with frequent stirring. Subsequently, the temperature was increased to 37°C and the mixtures were subjected to a second incubation for 2 hours. […] Cells, at a concentration of 5 x 10^5/ml, were then added to 24 multidish well plates at a final volume of 1.5 ml of growth medium (RPMI supplemented with 10% fetal calf serum (FCS), antibiotics and polybrene (2 µg/ml)), with the addition of peptides at dilutions of 250 or 25 µg/ml. […] As additional controls, two HIV infected cell cultures (designated pos. controls 1 and 2, Tables 3-5) and two uninfected cell cultures (designated neg. controls 1 and 2) were used.
Infected cells were continuously monitored for formation of syncytia and the growth medium supernatants were analyzed at days 9-12 p.i. for p24 antigen which is an indicator of HIV replication.
Briefly, the following protocol was used for detection of the p24 antigen. HIV p24 antigen was determined using a rabbit anti-p24 polyclonal antiserum as capture antibody and a biotinylated rabbit anti-p24 polyclonal antibody was used as detecting antibody in an avidin-horse radish peroxidase (HRP) ELISA. The sensitivity of the assay allowed detection of approximately 50 pg of p24 antigen per ml supernatant. […] Serial dilutions of the supernatants were made so as to detect p24 concentration in the most accurate range (< 2.0 absorbance units).
The number of infected cells were then determined by indirect immunofluorescence using a human HIV positive serum diluted 1/100 and FITC conjugated antihuman IgG (Bio Merieux, France) diluted 1/200.

[6] = system: herpes simplex virus type I (HSV-1) strain McIntyre; assay: Yield inhibition assay of HSV-1 in GMK cells; type: cell-based; settings: for YIELD OF HSV AFTER 24 HOURS: mean of two determinations
[7] = system: HIV; assay: Infectivity assay, summary in words over the virus/cell systems; type: cell-based; settings: Tables 3-5

SMILES: O=C(O)CNC(=O)[C@@H]1CCCN1 [PG-COOH Bachem, Pro-Gly, reference compound] (H-Pro-Gly-OH)
- p24 1/10 ([1]; 0.015 mM, Table 9): 1.483 absorbance (454 nm)
- p24 1/100 ([1]; 0.015 mM, Table 9): 0.554 absorbance (454 nm)
- p24 1/1000 ([1]; 0.015 mM, Table 9): 0.133 absorbance (454 nm)
- p24 1/10 ([1]; 0.0625 mM, Table 9): 1.413 absorbance (454 nm)
- p24 1/100 ([1]; 0.0625 mM, Table 9): 0.662 absorbance (454 nm)
- p24 1/1000 ([1]; 0.0625 mM, Table 9): 0.155 absorbance (454 nm)
- p24 1/10 ([1]; 0.25 mM, Table 9): 1.229 absorbance (454 nm)
- p24 1/100 ([1]; 0.25 mM, Table 9): 0.301 absorbance (454 nm)
- p24 1/1000 ([1]; 0.25 mM, Table 9): 0.125 absorbance (454 nm)
- # OF SYNCYTIA/WELL Day 7 ([1]; 1 mM, Table 9): 72
- p24 1/10 ([1]; 1 mM, Table 9): 1.397 absorbance (454 nm)
- p24 1/100 ([1]; 1 mM, Table 9): 0.484 absorbance (454 nm)
- p24 1/1000 ([1]; 1 mM, Table 9): 0.132 absorbance (454 nm)
- # OF SYNCYTIA/WELL Day 7 ([1]; 4 mM, Table 9): 83
- p24 1/10 ([1]; 4 mM, Table 9): >2.0 absorbance (454 nm)
- p24 1/100 ([1]; 4 mM, Table 9): 0.973 absorbance (454 nm)
- p24 1/1000 ([1]; 4 mM, Table 9): 0.249 absorbance (454 nm)

SMILES: N=C(N)NCCC[C@H](NC(=O)[C@@H](N)Cc1ccc(O)cc1)C(=O)NCC(=O)N1CCC[C@H]1C(=O)NCC(N)=O [YRGPG, Tyr-Arg-Gly-Pro-Gly-NH2] (H-YRGPG-NH2)
- PLAQUE REDUCTION PERCENT OF CONTROL ([2]; 25 µg/ml): 93
- PLAQUE REDUCTION NO. OF PLAQUES ([2]; 25 µg/ml): 152
- PLAQUE REDUCTION PERCENT OF CONTROL ([2]; 250 µg/ml): 90
- PLAQUE REDUCTION NO. OF PLAQUES ([2]; 250 µg/ml): 147
- capacity of HSV-1 to replicate in GMK cells ([2]; plaque reduction and virus yields, Table 7): did not reduce the capacity of HSV-1 to replicate
- # OF SYNCYTIA/WELL Day 9 ([3]; 25 µg/ml): 3
- % OF POS CELLS ([3]; 25 µg/ml): 5%
- p24 1/10 ([3]; 25 µg/ml): 0.809 absorbance (454 nm)
- p24 1/100 ([3]; 25 µg/ml): 0.505 absorbance (454 nm)
- p24 1/1,000 ([3]; 25 µg/ml): 0.133 absorbance (454 nm)
- p24 1/10,000 ([3]; 25 µg/ml): 0.077 absorbance (454 nm)
- # OF SYNCYTIA/WELL Day 9 ([3]; 250 µg/ml): 0
- % OF POS CELLS ([3]; 250 µg/ml): 0%
- p24 1/10 ([3]; 250 µg/ml): 0.257 absorbance (454 nm)
- p24 1/100 ([3]; 250 µg/ml): 0.107 absorbance (454 nm)
- p24 1/1,000 ([3]; 250 µg/ml): 0.123 absorbance (454 nm)
- p24 1/10,000 ([3]; 250 µg/ml): 0.092 absorbance (454 nm)
- PERCENTAGE OF POS CELLS ([4]; 25 µg/ml): 10
- p24 1/10 ([4]; 25 µg/ml): 2.667 absorbance (454 nm)
- p24 1/100 ([4]; 25 µg/ml): 2.221 absorbance (454 nm)
- p24 1/1,000 ([4]; 25 µg/ml): 0.655 absorbance (454 nm)
- p24 1/10,000 ([4]; 25 µg/ml): 0.279 absorbance (454 nm)
- PERCENTAGE OF POS CELLS ([4]; 250 µg/ml): 0.5-2
- p24 1/10 ([4]; 250 µg/ml): 1.475 absorbance (454 nm)
- p24 1/100 ([4]; 250 µg/ml): 0.341 absorbance (454 nm)
- p24 1/1,000 ([4]; 250 µg/ml): 0.208 absorbance (454 nm)
- p24 1/10,000 ([4]; 250 µg/ml): 0.192 absorbance (454 nm)
- infection of treated cells by p24 synthesis and syncytia formation ([5]; Tables 3-5): showed a reduced amount of infection
- prevention of HIV infection by p24 levels and syncytia formation (words) ([5]; Tables 3 to 6): prevent HIV infection
- YIELD OF HSV AFTER 24 HOURS PERCENT OF CONTROL ([6]; 25 µg/ml): 84
- YIELD OF HSV AFTER 24 HOURS ([6]; 25 µg/ml): 26 millions of pfu/ml
- YIELD OF HSV AFTER 24 HOURS PERCENT OF CONTROL ([6]; 250 µg/ml): 106
- YIELD OF HSV AFTER 24 HOURS ([6]; 250 µg/ml): 33 millions of pfu/ml
- # OF SYNCYTIA/WELL Day 9 ([1]; 25 µg/ml): 11
- # OF SYNCYTIA/WELL Day 14 ([1]; 25 µg/ml): >100
- % OF POS CELLS ([1]; 25 µg/ml): 10%
- p24 1/10 ([1]; 25 µg/ml): 2.117 absorbance (454 nm)
- p24 1/100 ([1]; 25 µg/ml): 0.638 absorbance (454 nm)
- p24 1/1,000 ([1]; 25 µg/ml): 0.094 absorbance (454 nm)
- p24 1/10,000 ([1]; 25 µg/ml): 0.144 absorbance (454 nm)
- # OF SYNCYTIA/WELL Day 9 ([1]; 250 µg/ml): 0
- # OF SYNCYTIA/WELL Day 14 ([1]; 250 µg/ml): 0
- % OF POS CELLS ([1]; 250 µg/ml): 0%
- p24 1/10 ([1]; 250 µg/ml): 0.135 absorbance (454 nm)
- p24 1/100 ([1]; 250 µg/ml): 0.103 absorbance (454 nm)
- p24 1/1,000 ([1]; 250 µg/ml): 0.091 absorbance (454 nm)
- p24 1/10,000 ([1]; 250 µg/ml): 0.115 absorbance (454 nm)

SMILES: Cc1cn([C@H]2C[C@H](N=[N+]=[N-])[C@@H](CO)O2)c(=O)[nH]c1=O [AZT, azidothymidine]
- infection of treated cells by p24 synthesis and syncytia formation [7]: showed a reduced amount of infection

SMILES: NCC(=O)N1CCC[C@H]1C(=O)NCC(=O)O [GPG-COOH Bachem, Gly-Pro-Gly, reference compound] (H-Gly-Pro-Gly-OH)
- p24 1/10 ([1]; 0.015 mM, Table 8): 1.485 absorbance (454 nm)
- p24 1/100 ([1]; 0.015 mM, Table 8): 0.397 absorbance (454 nm)
- p24 1/1000 ([1]; 0.015 mM, Table 8): 0.104 absorbance (454 nm)
- # OF SYNCYTIA/WELL Day 7 ([1]; 0.0625 mM, Table 8): 86
- p24 1/10 ([1]; 0.0625 mM, Table 8): >2.0 absorbance (454 nm)
- p24 1/100 ([1]; 0.0625 mM, Table 8): 0.797 absorbance (454 nm)
- p24 1/1000 ([1]; 0.0625 mM, Table 8): 0.221 absorbance (454 nm)
- # OF SYNCYTIA/WELL Day 7 ([1]; 0.25 mM, Table 8): 36
- p24 1/10 ([1]; 0.25 mM, Table 8): 1.404 absorbance (454 nm)
- p24 1/100 ([1]; 0.25 mM, Table 8): 0.648 absorbance (454 nm)
- p24 1/1000 ([1]; 0.25 mM, Table 8): 0.159 absorbance (454 nm)
- # OF SYNCYTIA/WELL Day 7 ([1]; 1 mM, Table 8): 67
- p24 1/10 ([1]; 1 mM, Table 8): 1.610 absorbance (454 nm)
- p24 1/100 ([1]; 1 mM, Table 8): 1.135 absorbance (454 nm)
- p24 1/1000 ([1]; 1 mM, Table 8): 0.299 absorbance (454 nm)
- # OF SYNCYTIA/WELL Day 7 ([1]; 4 mM, Table 8): 64
- p24 1/10 ([1]; 4 mM, Table 8): 1.552 absorbance (454 nm)
- p24 1/100 ([1]; 4 mM, Table 8): 1.007 absorbance (454 nm)
- p24 1/1000 ([1]; 4 mM, Table 8): 0.348 absorbance (454 nm)

SMILES: N=C(N)NCCC[C@H](N)C(=O)NCC(=O)N1CCC[C@H]1C(=O)NCC(N)=O [RGPG, Arg-Gly-Pro-Gly-NH2] (H-RGPG-NH2)
- YIELD OF HSV AFTER 24 HOURS PERCENT OF CONTROL ([6]; 25 µg/ml): 103
- YIELD OF HSV AFTER 24 HOURS ([6]; 25 µg/ml): 32 millions of pfu/ml
- YIELD OF HSV AFTER 24 HOURS PERCENT OF CONTROL ([6]; 250 µg/ml): 81
- YIELD OF HSV AFTER 24 HOURS ([6]; 250 µg/ml): 25 millions of pfu/ml
